Test results taken from patent US20170107179A1 (Tetraphase Pharmaceuticals, Inc., priority 2010, published 2017).

System: Klebsiella pneumoniae KP457 (2009 ESBL+, CTX-M, OXA)
Experiment: Minimum Inhibitory Concentration (MIC) assay, CLSI broth dilution
Parameters: key: A = lower than or equal to lowest MIC among three control compounds; B = greater than lowest MIC among three control compounds, but lower than highest MIC among three control compounds; C = greater than MIC of all three control compounds
Details: Table 7; class vs MICs of sancycline, minocycline, tigecycline
Procedure: Briefly, frozen bacterial strains were thawed and subcultured onto Mueller Hinton Broth (MHB) or other appropriate media (Streptococcus requires blood and Haemophilus requires hemin and NAD). Following incubation overnight, the strains were subcultured onto Mueller Hinton Agar and again incubated overnight. […] Isolated colonies were selected to prepare a starting inoculum equivalent to a 0.5 McFarland standard. The starting inoculum was diluted 1:125 (this is the working inoculum) using MHB for further use. […] .
The assays were run as follows. Fifty μL of MHB was added to wells 2-12 of a 96-well plate. One hundred μL of appropriately diluted antibiotics was added to well 1. Fifty μL of antibiotics was removed from well 1 and added to well 2 and the contents of well 2 mixed by pipetting up and down five times. Fifty μL of the mixture in well 2 was removed and added to well 3 and mixed as above. Serial dilutions were continued in the same manner through well 12. Fifty μL was removed from well 12 so that all contained 50 μL. Fifty μL of the working inoculum was then added to all test wells. A growth control well was prepared by adding 50 μL of working inoculum and 50 μL of MHB to an empty well. The plates were then incubated at 37° C. overnight, removed from the incubator and each well was read on a plate reading mirror. The lowest concentration (MIC) of test compound that inhibited the growth of the bacteria was recorded.
The following bacterial strains, listed below, were examined in minimum inhibitory concentration (MIC) assays.

MIC KP457	SMILES
C	CN(C)[C@@H]1C(O)=C(C(N)=O)C(=O)[C@@]2(O)C(O)=C3C(=O)c4c(O)c5c(c(F)c4C[C@H]3C[C@@H]12)CN(C)C1(CCCC1)C(=O)N5 [Compound 425]
C	CN(C)[C@@H]1C(O)=C(C(N)=O)C(=O)[C@@]2(O)C(O)=C3C(=O)c4c(O)c5c(c(F)c4C[C@H]3C[C@@H]12)CN1C[C@@H](F)C[C@H]1C(=O)N5 [Compound 404]
C	CN(C)[C@@H]1C(O)=C(C(N)=O)C(=O)[C@@]2(O)C(O)=C3C(=O)c4c(O)c5c(c(F)c4C[C@H]3C[C@@H]12)CN1C[C@H](O)C[C@H]1C(=O)N5 [Compound 414]
C	CN(C)[C@@H]1C(O)=C(C(N)=O)C(=O)[C@@]2(O)C(O)=C3C(=O)c4c(O)c5c(c(F)c4C[C@H]3C[C@@H]12)CN(C)C1(CC1)C(=O)N5 [Compound 422]

The next lines start with the compound.

SMILES	MIC KP457
CC(C)[C@H]1C(=O)Nc2c(O)c3c(c(F)c2CN1C)C[C@H]1C[C@H]2[C@H](N(C)C)C(O)=C(C(N)=O)C(=O)[C@@]2(O)C(O)=C1C3=O [Compound 401]	C
CN(C)[C@@H]1C(O)=C(C(N)=O)C(=O)[C@@]2(O)C(O)=C3C(=O)c4c(O)c5c(c(F)c4C[C@H]3C[C@@H]12)CN(C)C(C)(C)C(=O)N5 [Compound 402]	C
CN(C)[C@@H]1C(O)=C(C(N)=O)C(=O)[C@@]2(O)C(O)=C3C(=O)c4c(O)c5c(c(F)c4C[C@H]3C[C@@H]12)CN1CCCC[C@@H]1C(=O)N5 [Compound 410]	C
